Consider 89 compounds from PubChem BioAssay AID463173 (ICCB-Longwood Screening Facility, Harvard Medical School, 2010).

About 1,700 (3.3%) of roughly 52,000 compounds were called active. Rule as the data show it: active = survival mostly below about 52% (no sharp cut-off); inactive = mostly above about 56%. Some of the results follow.

This test relates to Wild type. Put plainly: S. aureus survival, RN4220 and DeltatarO strains – OD600, teichoic acid synthesis inhibitors, primary screen (AID 463173). As to conditions: S. aureus RN4220 wild type/DeltatarO growth, OD600, 18 h, active compounds read low, screened at 18.75 µg/mL (by protocol).
For `COc1ccc(CNC(=O)C(=O)NCC(c2ccc3c(c2)OCO3)N2CCOCC2)cc1` (centres undefined), the survival is inactive: 80%.

In the case of `O=C(CSc1n[nH]c(-c2ccccc2)n1)N1CCCCC1`, the survival is inactive: 51%.

Take `COC(=O)c1sccc1S(=O)(=O)N1CCN(c2cccc(C)c2C)CC1`: the survival is inactive: 67%.

In the case of `Cc1ccc(Cl)cc1N1CCN(C(c2ccc(F)cc2)c2nnc(-c3ccccc3)o2)CC1` (centres undefined), the survival is inactive: 50%.

Turning to `O=C(CSc1nnc(CNc2ccccc2)o1)N1CCc2ccccc21`, the survival is inactive: 105%.

For the compound `N#Cc1cc2cc(Br)ccc2oc1=O`, the survival is inactive: 99%.

In the case of `COc1ccc(-c2cc(C(=O)N3CCN(c4ccccc4OC)CC3)c3cc(C(C)C)ccc3n2)cc1`, the survival was inactive: 85%.

As for `Cc1noc(/C=C/N(C)C)c1S(=O)(=O)N1CCCC(C(=O)Nc2cccc(F)c2)C1` (centres undefined), the survival was inactive: 73%.

With `CCOc1ccc(CC(=O)NCCc2csc3nc(-c4ccccc4F)nn23)cc1`, the survival was inactive: 119%.

Consider `CC1CCCc2c1nc(N)c(C#N)c2-c1ccccc1` (centres undefined), for which the survival was inactive: 108%.

`CCS(=O)(=O)Cc1cccs1`: the survival was inactive: 109%.

Turning to `O=C(CC(c1ccccc1)c1ccccc1)NCc1ccco1`, the survival was inactive: 114%.

For the compound `Cc1ccc(CNC(=O)c2cn(C)c3ccc(S(=O)(=O)N(C)C4CCCCC4)cc3c2=O)cc1`, the survival is inactive: 83%.

As for `CCc1ccc(-n2nc3ccc(NC(=O)c4cc5ccccc5o4)cc3n2)cc1`, the survival was inactive: 80%.

On to `Cc1ccc(CNC(=O)c2nc(SCc3cccc(C)c3)ncc2Cl)cc1`, for which the survival was inactive: 116%.

In the case of `CCOc1ccc(-c2cc3c(=O)n(Cc4nc(-c5cccc(OC)c5OC)oc4C)ccn3n2)cc1Cl`, the survival was inactive: 145%.

For `Nc1cc(C(=O)c2ccccc2)ccc1N1CCOCC1`, the survival was inactive: 118%.

As to `CCC(=O)N1CCc2cc(S(=O)(=O)CCC(=O)N3CCN(c4cccc(C)c4)C(C)C3)ccc21` (centres undefined), the survival was inactive: 83%.

Regarding `CCN(Cc1ccc(OC)cc1)c1ccc(-c2nc(-c3ccncc3)no2)cc1[N+](=O)[O-]`, the survival is inactive: 85%.

`CC1CCN(C(=O)COc2ccc(C(C)C)cc2)CC1`: the survival was inactive: 115%.

With `COc1ccc(OC)c(S(=O)(=O)N2Cc3ccccc3CC2C(=O)Nc2ccc(C(C)=O)cc2)c1` (centres undefined), the survival is inactive: 79%.

In the case of `Cc1cc(C)c(Cn2c3ccccc3c3cnn(CC(=O)NCCCc4ccccc4)c(=O)c32)c(C)c1`, the survival was inactive: 141%.

Consider `O=C(NCCc1ccccc1)c1ccc(Cn2c(SCc3ccc(F)cc3)nc3cccnc32)cc1`, for which the survival was inactive: 87%.

Consider `Cc1ccccc1Nc1c(-c2ccsc2)nc2c(C)cccn12`, for which the survival is active: 0%.

Take `O=C(NCc1cccc(Cl)c1)c1cccn1-c1nnc(N2CCCC2)s1`: the survival was inactive: 32%.

With `COc1ccc(OC)c(CCNC(=O)CCn2c(=O)c3cccn3c3cccnc32)c1`, the survival was inactive: 82%.

On to `CC(C)Cn1c(=O)c2ccccc2n2c(-c3ccc(Br)cc3)nnc12`, for which the survival was inactive: 86%.

For `CCCCN(c1ccccc1)c1ncnc2c1cnn2-c1ccc(Cl)cc1`, the survival is inactive: 85%.

Turning to `Cc1ccc(CN(Cc2ccco2)c2cnc(S(C)(=O)=O)nc2C(=O)Nc2ccc(Br)cc2)o1`, the survival was inactive: 124%.

As for `Cc1ccc(-c2cn3cccc(C)c3n2)cc1NS(=O)(=O)c1ccccc1`, the survival is inactive: 55%.

For `Cc1ccccc1NC(=O)Cn1c(=O)n(Cc2ccc3c(c2)OCO3)c(=O)c2oc3ccccc3c21`, the survival is inactive: 82%.

Take `Cc1cc(C)cc(C(=O)Nc2cc(C(F)(F)F)ccc2N2CCN(c3ccccc3)CC2)c1`: the survival is inactive: 78%.

With `COc1ccc(-c2ccc(C#N)c(SCc3ccccn3)n2)cc1`, the survival was inactive: 105%.

With `O=C(c1ccccc1)N1CCc2cc(CNS(=O)(=O)c3ccccc3Cl)ccc21`, the survival is inactive: 70%.

For the compound `CCOc1cc(C(=O)OCc2cc(=O)n3c(C)csc3n2)cc(OCC)c1OCC`, the survival is active: -3%.

As for `CC(=O)Nc1ccc(S(=O)(=O)NCC2CCC(C(=O)NCCCOC(C)C)CC2)cc1` (centres undefined), the survival was inactive: 112%.

On to `Cc1ccc(-c2nn3c(C)nnc3c3ccccc23)cc1S(=O)(=O)NCCO`, for which the survival is inactive: 68%.

In the case of `Cc1cccc(N(CC(=O)NC(C)c2ccccc2)S(=O)(=O)c2ccccc2)c1C` (centres undefined), the survival was inactive: 79%.

With `CS(=O)(=O)c1ncc(N(Cc2ccccc2)Cc2ccco2)c(C(=O)Nc2cccc(C(F)(F)F)c2)n1`, the survival was inactive: 77%.

Take `CC(C)Cn1c(=O)c2sccc2n2c(CCCC(=O)Nc3ccc(Cl)cc3)nnc12`: the survival was inactive: 95%.

`Cc1cc(C)c(NC(=O)CSc2nc(=O)n(Cc3ccco3)c3c2CCC3)c(C)c1`: the survival was inactive: 74%.

In the case of `O=C(NCCc1ccc(Cl)cc1)c1ccc2nc(Cc3ccccc3)oc2c1`, the survival was inactive: 87%.

As for `COc1cccc(-c2nc(SCc3cc(=O)c4cc(Cl)ccc4[nH]3)n[nH]2)c1`, the survival was inactive: 71%.

For the compound `COc1ccc2c(Sc3ccccc3)c(C(=O)NCCN(C)C)[nH]c2c1`, the survival is inactive: 94%.

For the compound `Cc1cc2c(cc1S(=O)(=O)Nc1cccc(C(F)(F)F)c1)OCCN2C`, the survival was inactive: 92%.

Turning to `CCOc1ccc(-c2nonc2NC(=O)c2ccccc2C)cc1`, the survival is inactive: 125%.

Consider `CCc1ccc(CN(Cc2ccco2)C(=O)c2cc(-c3ccc(Cl)cc3)on2)cc1`, for which the survival is inactive: 89%.

As for `CC(C)(C)C1CCc2c(sc(NC(=O)c3ccccc3F)c2C(=O)N2CCCCC2)C1` (centres undefined), the survival was active: -3%.

As to `Cc1ccc2c(c1)c(=O)c(S(=O)(=O)c1ccc(F)cc1)cn2CC(=O)Nc1ccc2c(c1)OCO2`, the survival is inactive: 74%.

As to `CC(C)Oc1ccc(CNC(=O)Cc2ccc(NC(=O)N3CCSc4ncccc43)cc2)cc1`, the survival is inactive: 73%.

Regarding `Cc1ccc(Cl)cc1NC(=O)NC1COc2ccccc2C1` (centres undefined), the survival was inactive: 75%.

Take `O=C(Cc1ccc(Cl)cc1)Nc1ccc2oc(-c3ccccc3)nc2c1`: the survival is inactive: 76%.

`CCN(CC)C(=O)c1sc2c(c1C)c(=O)n(-c1ccc(C)c(C)c1)c(=O)n2CC(=O)Nc1ccc(F)cc1`: the survival was inactive: 101%.

With `Cc1ccc(-n2ncc(C(=O)NCc3cccs3)c2C2CCN(C(=O)OC(C)(C)C)CC2)cc1C`, the survival was inactive: 90%.

As for `CCC(Cn1nnc2ccccc2c1=O)NC(=O)Nc1cc(Cl)ccc1OC` (centres undefined), the survival is inactive: 77%.

As for `Cc1cccc(Cn2c(CNS(=O)(=O)c3ccc(Cl)s3)nc3cccnc32)c1`, the survival was inactive: 101%.

As for `Cc1ccc2[nH]c(CSc3nnc(NC(=O)COc4ccccc4F)s3)cc(=O)c2c1`, the survival is inactive: 76%.

Consider `CCOc1ccc(-c2cc3c(=O)n(CC(=O)Nc4c(C)cccc4C)ccn3n2)cc1`, for which the survival was inactive: 85%.

Consider `CC(C)CN(CCNC(=O)c1cc(=O)[nH]c2ccc(S(=O)(=O)N3CCCCCC3)cc12)CC(C)C`, for which the survival is inactive: 82%.

For the compound `Cn1c(=O)oc2cc(S(=O)(=O)NCCC(=O)Nc3ccc(F)c(Cl)c3)ccc21`, the survival was inactive: 85%.

As for `Cc1ccc(C)c(OCCOCCn2c(-c3ccc(Br)cc3)nc3ccccc3c2=O)c1C`, the survival was inactive: 67%.

In the case of `Cc1cc(SCCN2CCOCC2)nc2ccccc12`, the survival is inactive: 113%.

Consider `Cc1ccc(Cl)cc1NC(=O)/C(C#N)=C/c1c(C)n(Cc2ccccc2)c2ccccc12`, for which the survival was inactive: 80%.

For the compound `Cc1cc2ncn(CCC(=O)Nc3ccccc3F)c2cc1C`, the survival is inactive: 105%.

Take `CC1CCCCN1C(=O)CSc1nnc(-c2cccc(Cl)c2)o1` (centres undefined): the survival was inactive: 81%.

`CC(=O)N1CCCc2cc(S(=O)(=O)N(C)CC(=O)Nc3ccc(F)c(Cl)c3)ccc21`: the survival is inactive: 125%.

Regarding `Fc1ccc(-c2csc(-c3nc(-c4ccc(Br)s4)cs3)n2)cc1`, the survival is inactive: 62%.

For `C1CCC2(CC1)C1=C(CCCC1)Nc1nnnn12`, the survival was inactive: 107%.

Take `CCOc1ccc(NC(=O)CCCN2C(=O)C(c3ccccc3)Oc3cccnc32)cc1` (centres undefined): the survival was inactive: 88%.

`CCCCN(C)CCNC(=O)Cn1ncc2c3ccccc3n(CCC)c2c1=O`: the survival was inactive: 120%.

For `COc1ccc(C2(O)CCN(CC(=O)NC(C)C)CC2)cc1`, the survival is inactive: 96%.

With `Cc1ccc(NC(=O)c2ccc3nc(Cc4ccccc4)oc3c2)cc1F`, the survival was inactive: 19%.

Consider `CCN(CC)c1ccc2cc(-c3nnc(-c4cccc(Cl)c4)o3)c(=O)oc2c1`, for which the survival is inactive: 73%.

Consider `Cc1cccc(-c2noc(CN(C(=O)c3ccc(C)c(C)c3)C(C)C)n2)c1`, for which the survival was active: 0%.

As to `Cc1ccc(NC(=O)c2ncn(-c3ccccc3)n2)c(Cl)c1`, the survival was inactive: 89%.

With `COc1ccc(C)cc1N(C)C(=O)c1sc2nc3n(c(=O)c2c1C)CCCCC3`, the survival was inactive: 81%.

Take `Cc1csc2nc(-c3cccc(NC(=O)c4cccc(F)c4)c3)cn12`: the survival was inactive: 136%.

`O=C(CN(C(=O)c1cc2c(s1)CCC2)C1CCCC1)NCc1cccs1`: the survival is inactive: 101%.

On to `CCCCCn1c(=O)[nH]c2cc(C(=O)NCc3ccc(C)cc3)ccc2c1=O`, for which the survival is inactive: 87%.

Take `OC(COc1ccc(Cl)cc1Cl)CN1CCCCC1` (centres undefined): the survival is inactive: 102%.

In the case of `CCOc1ccc(CCNC(=O)C2=C(C)C(=O)OC23CCC(C)CC3)cc1OCC` (centres undefined), the survival is inactive: 76%.

Regarding `Cc1ccc(C(=O)c2oc3ccccc3c2NC(=O)c2nc(S(C)(=O)=O)ncc2Cl)cc1F`, the survival was inactive: 83%.

Consider `COc1cccc(NC(=O)CSc2nc(-c3ccccc3)nc3c2Cc2cc(Cl)ccc2O3)c1`, for which the survival is inactive: 89%.

Take `CCOc1cc(C#N)c(NC(=O)c2ccc(OC)c(S(=O)(=O)N3CCCC3)c2)cc1OCC`: the survival is inactive: 73%.

In the case of `O=S(=O)(c1ccccc1)c1nc(-c2ccc(F)cc2)oc1N1CCOCC1`, the survival was inactive: 73%.

Consider `CCOC(=O)c1cccc(NC(=O)CC(c2ccc(F)cc2)N2Cc3ccccc3C2=O)c1` (centres undefined), for which the survival is inactive: 83%.

`CCN(Cc1ccccc1)C(=O)C1CCN(Cc2cc(Br)c(O)c(OC)c2)CC1`: the survival was inactive: 102%.

On to `CCCOc1ccc(OC(=O)c2sc3ncn(Cc4cccc(F)c4)c(=O)c3c2C)cc1`, for which the survival was inactive: 56%.

For the compound `O=C(c1nc(-c2ccc(Cl)cc2)n2c1CCCCC2)N1CCN(c2ccc(F)cc2)CC1`, the survival was inactive: 70%.
